Some of the results follow.
Test system: T1, Caupolican (Caup) homeodomain DNA-binding domain
T1 sequence: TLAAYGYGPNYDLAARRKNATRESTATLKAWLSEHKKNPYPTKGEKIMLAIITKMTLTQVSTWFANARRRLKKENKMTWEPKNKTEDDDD
Assay: PBM E-score (8-mer, recovered from the published 9-mer minima) (E-score (dimensionless, -0.5 to 0.5)); Drosophila protein; higher = stronger relative binding preference, active = 0.31 or more
Method in brief: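 Caup's homeodomain DNA-binding domain (residues 214-303) was produced by in vitro transcription and translation and applied at 100 nM to custom-designed protein binding microarrays. Each value is an enrichment score giving relative binding preference for a short DNA word; higher means stronger. Published 9-mer scores were the minimum of their two constituent 8-mer scores, and the 8-mer values were recovered from those minima. A cutoff of 0.31 marks candidate binding sequences.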

Row | Sequence | PBM E-score
1 | GGCAGACC | inactive: -0.232
2 | GCGTACCA | inactive: -0.00399
3 | AGTGGCGC | inactive: -0.182
4 | ACCAGGAA | inactive: 0.0235
5 | ACACCCCT | inactive: 0.0587
6 | ACTAGCCT | ≥ 0.0954
7 | AACCTGGT | ≥ 0.104
8 | CCCGCCCA | inactive: -0.17
9 | ACCCCGCC | inactive: -0.193
10 | ACCAACAG | inactive: -0.0273
11 | CTTTGTCC | inactive: 0.0364
12 | CAGCTCAC | inactive: -0.0606
13 | CAATCTGA | inactive: 0.107
14 | AATTACGT | inactive: 0.122
15 | ATGTGATA | ≥ 0.286
16 | AATTTGGC | inactive: -0.122
17 | ACGAGCGC | inactive: -0.102
18 | GAACGCCC | inactive: -0.197
19 | ACTGGAAG | inactive: -0.124
20 | GCCTAAGC | inactive: -0.175
21 | ATCCCCCA | inactive: -0.217
22 | AAATCTTG | inactive: 0.169
23 | TAGGACTA | inactive: 0.0296

Row | Sequence | PBM E-score
24 | CAGCTCTC | inactive: -0.131
25 | GCATTACC | inactive: -0.0431
26 | CAGCAGTA | inactive: 0.00946
27 | GACCGTAA | inactive: -0.0601
28 | AGACGGAC | inactive: -0.0361
29 | AAGACGGG | inactive: -0.184
30 | GGCCGGAA | inactive: -0.282
31 | TAGCATAA | inactive: 0.0882
32 | CACAATAG | inactive: 0.119
33 | CAAACGTG | inactive: 0.121
34 | AACGTCGA | inactive: 0.0619
35 | GGCGCAGA | inactive: -0.143
36 | CTACAACC | inactive: 0.281
37 | ACATATGG | inactive: 0.223
38 | CTCGCTTC | inactive: -0.161
39 | ACGGTAGC | inactive: -0.044
40 | ACAATAGA | inactive: 0.134
41 | GCCAGTAA | inactive: -0.116
42 | ACATGTTC | active: 0.455
43 | ATTGGGGG | inactive: -0.246
44 | AGCCGTAG | inactive: -0.0734
45 | AAGTGCGG | inactive: -0.101
46 | CCATTGTC | inactive: 0.0627

Row | Sequence | PBM E-score
47 | AAACATAG | inactive: 0.267
48 | ACTTCTAG | inactive: -0.0699
49 | GGCCGGCA | inactive: -0.241
50 | TGACCACA | inactive: 0.0414
51 | CGATAGAG | inactive: -0.0723
52 | CGCACTCA | inactive: -0.095
53 | ATTCCAAA | inactive: 0.0779
54 | GATGCCAA | inactive: -0.0306
55 | CCACGACG | inactive: -0.142
56 | CGTGCTCA | ≥ 0.103
57 | TAATAGGA | inactive: 0.0689
58 | GCGTACGA | inactive: -0.0497
59 | ACTTTATG | inactive: 0.0771
60 | CGTCTAGA | inactive: -0.119
61 | CTCCCACC | inactive: -0.196
62 | GAGGCCGA | inactive: -0.147
63 | CGTCAGGC | inactive: -0.146
64 | CCTATCGA | inactive: 0.0985
65 | AATTGTGC | inactive: 0.0366
66 | CGGCCGCC | inactive: -0.254
67 | ATATCTAG | inactive: 0.0351
68 | CTTCGTTA | inactive: -0.0637
69 | CAGGTTAG | inactive: -0.0352

Row | Sequence | PBM E-score
70 | ATAAGTAT | inactive: 0.0762
71 | AGACTCAC | inactive: 0.0308
72 | CCGCTCCC | inactive: -0.313
73 | ATTGAGGG | inactive: -0.114
74 | TCTTTAAA | inactive: -0.0311
75 | AGGGTTTA | ≥ 0.0817
76 | GTAGCGAA | inactive: 0.0736
77 | CAATTATC | inactive: 0.129
78 | CAGCGCCA | inactive: -0.191
79 | CGACACCA | inactive: 0.0948
80 | CGCGTAAG | inactive: -0.0298
81 | ATTCGCCG | inactive: -0.0854
82 | GAGACTGC | inactive: -0.163
83 | GCGCTTCA | inactive: -0.139
84 | AAGACCAA | inactive: 0.0212
85 | AAGGGGCG | inactive: -0.257
86 | CCACGTAG | inactive: -0.211
87 | CGTTAAAG | inactive: -0.033
88 | CGTGCTTC | inactive: -0.01
89 | TCGTGTCA | active: 0.328
90 | ACTGATTA | inactive: 0.183
91 | CCCTGCGC | inactive: -0.299
92 | ACGTTAAA | ≥ 0.117

Row | Sequence | PBM E-score
93 | AAACTATG | inactive: 0.0743
94 | AGCCCAGA | ≥ -0.11
95 | CTAAAAAC | inactive: -0.00686
96 | CCTAGCCG | inactive: -0.217
97 | GCGCGTCC | inactive: -0.197
98 | AACTTATC | inactive: 0.0353
99 | ATCACCCC | inactive: -0.0463
100 | GAGGTTCA | inactive: -0.0903
101 | CGCACCTA | inactive: -0.108
102 | TACCCGAA | inactive: 0.0484
103 | ACATATCG | inactive: 0.238
104 | CGTACTTC | inactive: -0.0253
105 | ATAGGCAG | inactive: 0.0479
106 | ACAACAGA | inactive: 0.255
107 | GCGGCTCA | inactive: -0.263
108 | ATGTGGTG | inactive: 0.118
109 | CGTTATAG | inactive: 0.0727
110 | CAGCGGCC | inactive: -0.246
111 | AAACCGAT | inactive: -0.04
112 | AACCCCCA | inactive: -0.194
113 | CATTTCTC | inactive: 0.0178

Reference: the supplement of paper PMC3724861
